From EPA's CvTdb concentration-time database
This continues a long series; more values of the same kind are listed elsewhere.

Key:
Assay in all cases: concentration in plasma after dosing
Rat [1] = settings: 12 h; dosed: Potassium Perfluorobutane Sulfonate; 20 mg/kg; oral; Male; Harlan Sprague Dawley
Rat [2] = settings: dosed: Potassium Perfluorobutane Sulfonate, 100 mg/kg, oral, Female, Harlan Sprague Dawley
Rat [3] = settings: dosed: Potassium Perfluorobutane Sulfonate, 100 mg/kg, oral, Male, Harlan Sprague Dawley
Rat [4] = settings: 3 h; dosed: Potassium Perfluorobutane Sulfonate; 20 mg/kg; oral; Male; Harlan Sprague Dawley
Rat [5] = settings: 1.5 h; dosed: Potassium Perfluorobutane Sulfonate; 20 mg/kg; oral; Female; Harlan Sprague Dawley
Rat [6] = settings: dosed: Potassium Perfluorobutane Sulfonate, 100 mg/kg, oral, Male, Harlan Sprague Dawley; remark: listed apart in the source
Rat [7] = settings: 1 h; dosed: Potassium Perfluorobutane Sulfonate; 4 mg/kg; oral; Female; Harlan Sprague Dawley
Rat [8] = settings: 0.5 h; dosed: Potassium Perfluorobutane Sulfonate; 20 mg/kg; oral; Female; Harlan Sprague Dawley
Rat [9] = settings: dosed: Potassium Perfluorobutane Sulfonate, 4 mg/kg, oral, Female, Harlan Sprague Dawley
Rat [10] = settings: dosed: Potassium Perfluorobutane Sulfonate, 100 mg/kg, oral, Female, Harlan Sprague Dawley; remark: listed apart in the source
Rat [11] = settings: 12 h; dosed: Potassium Perfluorobutane Sulfonate; 20 mg/kg; oral; Female; Harlan Sprague Dawley
Rat [12] = settings: dosed: Potassium Perfluorobutane Sulfonate, 100 mg/kg, oral, Male, Harlan Sprague Dawley; remark: listed apart in the source
Rat [13] = settings: 3 h; dosed: Potassium Perfluorobutane Sulfonate; 20 mg/kg; oral; Male; Harlan Sprague Dawley; remark: listed apart in the source
Rat [14] = settings: 12 h; dosed: Potassium Perfluorobutane Sulfonate; 20 mg/kg; oral; Female; Harlan Sprague Dawley; remark: listed apart in the source
Rat [15] = settings: dosed: Potassium Perfluorobutane Sulfonate, 100 mg/kg, oral, Male, Harlan Sprague Dawley; remark: listed apart in the source
Rat [16] = settings: 3 h; dosed: Potassium Perfluorobutane Sulfonate; 20 mg/kg; oral; Female; Harlan Sprague Dawley
Rat [17] = settings: dosed: Potassium Perfluorobutane Sulfonate, 100 mg/kg, oral, Male, Harlan Sprague Dawley; remark: listed apart in the source
Rat [18] = settings: 0.25 h; dosed: Potassium Perfluorobutane Sulfonate; 20 mg/kg; oral; Female; Harlan Sprague Dawley
Rat [19] = settings: 1 h; dosed: Potassium Perfluorobutane Sulfonate; 20 mg/kg; oral; Male; Harlan Sprague Dawley
Rat [20] = settings: 12 h; dosed: Potassium Perfluorobutane Sulfonate; 20 mg/kg; oral; Male; Harlan Sprague Dawley; remark: listed apart in the source
Rat [21] = settings: 0.5 h; dosed: Dibromoacetic acid; 50 mg/kg; oral; Male; Harlan Sprague Dawley
Rat [22] = settings: 0.5 h; dosed: Dibromoacetic acid; 25 mg/kg; iv; Female; F344
Rat [23] = settings: dosed: Dibromoacetic acid, 25 mg/kg, iv, Male, F344
Rat [24] = settings: dosed: Dibromoacetic acid, 50 mg/kg, oral, Female, Harlan Sprague Dawley
Rat [25] = settings: dosed: Dibromoacetic acid, 125 mg/kg, oral, Male, F344
Rat [26] = settings: dosed: Dibromoacetic acid, 125 mg/kg, oral, Male, F344; remark: listed apart in the source
Rat [27] = settings: dosed: Dibromoacetic acid, 25 mg/kg, iv, Male, F344; remark: listed apart in the source
Rat [28] = settings: dosed: Dibromoacetic acid, 50 mg/kg, oral, Female, Harlan Sprague Dawley; remark: listed apart in the source
Rat [29] = settings: dosed: Dibromoacetic acid, 25 mg/kg, iv, Male, F344; remark: listed apart in the source
Rat [30] = settings: 10 min; dosed: Dibromoacetic acid; 125 mg/kg; oral; Female; F344
Rat [31] = settings: 3 h; dosed: Dibromoacetic acid; 50 mg/kg; oral; Female; F344
Rat [32] = settings: dosed: Dibromoacetic acid, 50 mg/kg, oral, Female, Harlan Sprague Dawley; remark: listed apart in the source
Rat [33] = settings: dosed: Dibromoacetic acid, 50 mg/kg, oral, Female, Harlan Sprague Dawley; remark: listed apart in the source
Rat [34] = settings: dosed: Dibromoacetic acid, 25 mg/kg, iv, Male, F344; remark: listed apart in the source
Rat [35] = settings: dosed: Dibromoacetic acid, 50 mg/kg, oral, Female, Harlan Sprague Dawley; remark: listed apart in the source
Rat [36] = settings: dosed: Dibromoacetic acid, 25 mg/kg, iv, Female, F344
Rat [37] = settings: dosed: Dibromoacetic acid, 125 mg/kg, oral, Male, F344; remark: listed apart in the source

O=S(=O)([O-])C(F)(F)C(F)(F)C(F)(F)C(F)(F)F.[K+] [Potassium Perfluorobutane Sulfonate]
Settings | concentration in plasma [ng/mL]
Rat [1] | 11800
Rat [4] | 62500
Rat [5] | 34900
Rat [7] | 9600
Rat [8] | 36600
Rat [11] | 40.1
Rat [13] | 56600
Rat [14] | 410
Rat [16] | 18200
Rat [18] | 35900
Rat [19] | 78500
Rat [20] | 12800

Settings | concentration in plasma [ng/mL]
Rat [2], 3 h | 75200
Rat [2], 5 min | 21700
Rat [3], 0.25 h | 116000
Rat [3], 6 h | 68700
Rat [6], 0.25 h | 114000
Rat [6], 6 h | 91800
Rat [9], 3 h | 3290
Rat [9], 5 min | 720
Rat [10], 0.75 h | 186000
Rat [10], 12 h | 366
Rat [12], 3 h | 177000
Rat [12], 5 min | 18700
Rat [15], 1.5 h | 202000
Rat [15], 48 h | 99.2
Rat [17], 3 h | 151000
Rat [17], 5 min | 6140

O=C(O)C(Br)Br [Dibromoacetic acid]
Settings | concentration in plasma [ng/mL]
Rat [21] | 40000
Rat [22] | 13500
Rat [30] | 60800
Rat [31] | 1820

Settings | concentration in plasma [ng/mL]
Rat [23], 2 min | 67300
Rat [23], 40 min | 6470
Rat [24], 1 h | 25800
Rat [24], 2 h | 6090
Rat [25], 8 h | 136
Rat [25], 10 min | 38900
Rat [26], 3 h | 21700
Rat [26], 20 min | 61300
Rat [27], 0.2 h | 29900
Rat [27], 55 min | 2500
Rat [28], 0.5 h | 38200
Rat [28], 6 h | 351
Rat [29], 1 h | 2560
Rat [29], 20 min | 21900
Rat [32], 1 h | 19500
Rat [32], 2 h | 9310
Rat [33], 1.5 h | 8900
Rat [33], 20 min | 12400
Rat [34], 0.2 h | 27300
Rat [34], 55 min | 2620
Rat [35], 0.75 h | 23300
Rat [35], 4 h | 1700
Rat [36], 0.75 h | 5640
Rat [36], 5 min | 52800
Rat [37], 0.75 h | 46800
Rat [37], 4 h | 7850
